In the supplement of paper PMC8728848:
The list shows a part of the results.

What was measured:
Experiment in all cases: glycan array binding signal (z-score within array); higher = stronger binding
Details in all cases: glycan notation: IUPAC condensed, linker removed
[1] = molecular target: Gal(b1-3)GlcNAc(b1-3)Gal(b1-4)GlcNAc(b1-2)[Gal(b1-3)GlcNAc(b1-3)Gal(b1-4)GlcNAc(b1-6)]Man(a1-6)[Gal(b1-3)GlcNAc(b1-3)Gal(b1-4)GlcNAc(b1-2)Man(a1-3)]Man(b1-4)GlcNAc(b1-4)[Fuc(a1-6)]GlcNAc
Method in brief: (§1)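 Arrays were curated from the Consortium for Functional Glycomics database, 3228 in total, and kept only where the protein sequence was available. Binding is expressed as a within-array Z-score. This score was averaged across arrays of the same protein sequence at different concentrations or buffers and across linkers, and negative values can be read as non-binding.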

[2] = molecular target: Gal(b1-3)GlcNAc(b1-3)Gal(b1-4)GlcNAc(b1-3)Gal(b1-4)GlcNAc(b1-2)[Gal(b1-3)GlcNAc(b1-3)Gal(b1-4)GlcNAc(b1-3)Gal(b1-4)GlcNAc(b1-6)]Man(a1-6)[Gal(b1-3)GlcNAc(b1-3)Gal(b1-4)GlcNAc(b1-3)Gal(b1-4)GlcNAc(b1-2)Man(a1-3)]Man(b1-4)GlcNAc(b1-4)[Fuc(a1-6)]GlcNAc
Method in brief: as §1

[3] = molecular target: Gal(b1-3)GlcNAc(b1-3)Gal(b1-4)GlcNAc(b1-6)[Gal(b1-3)GlcNAc(b1-3)]Gal(b1-4)Glc
Method in brief: as §1

[4] = molecular target: Gal(b1-3)GlcNAc(b1-3)Gal(b1-4)[Fuc(a1-3)]GlcNAc(b1-6)[Gal(b1-3)GlcNAc(b1-3)]Gal(b1-4)Glc
Method in brief: as §1

[5] = molecular target: Gal(b1-3)GlcNAc(b1-3)GalNAc
Method in brief: as §1

[6] = molecular target: Gal(b1-3)GlcNAc(b1-6)Gal(b1-4)GlcNAc
Method in brief: as §1

[7] = molecular target: Gal(b1-3)GlcNAc(b1-6)GalNAc
Method in brief: as §1

[8] = molecular target: Gal(b1-3)GlcNAc(b1-6)[Gal(b1-3)]GalNAc
Method in brief: as §1

[9] = molecular target: Gal(b1-3)GlcNAc6S
Method in brief: as §1

[10] = molecular target: Gal(b1-3)[Fuc(a1-4)]GlcNAc
Method in brief: as §1

[11] = molecular target: Gal(b1-3)[Fuc(a1-4)]GlcNAc(b1-2)Man
Method in brief: as §1

[12] = molecular target: Gal(b1-3)[Fuc(a1-4)]GlcNAc(b1-2)Man(a1-3)[Gal(b1-3)[Fuc(a1-4)]GlcNAc(b1-2)Man(a1-6)]Man(b1-4)GlcNAc(b1-4)[Fuc(a1-6)]GlcNAc
Method in brief: as §1

[13] = molecular target: Gal(b1-3)[Fuc(a1-4)]GlcNAc(b1-3)Gal(b1-3)[Fuc(a1-4)]GlcNAc
Method in brief: as §1

[14] = molecular target: Gal(b1-3)[Fuc(a1-4)]GlcNAc(b1-3)Gal(b1-4)GlcNAc
Method in brief: as §1

[15] = molecular target: Gal(b1-3)[Fuc(a1-4)]GlcNAc(b1-3)Gal(b1-4)[Fuc(a1-3)]GlcNAc
Method in brief: as §1

[16] = molecular target: Gal(b1-3)[Fuc(a1-4)]GlcNAc(b1-6)GalNAc
Method in brief: as §1

[17] = molecular target: Gal(b1-3)[GlcNAc(b1-6)]GalNAc
Method in brief: as §1

[18] = molecular target: Gal(b1-3)[Neu5Ac(a2-6)]GalNAc
Method in brief: as §1

[19] = molecular target: Gal(b1-3)[Neu5Ac(a2-6)]GlcNAc(b1-4)Gal(b1-4)Glc
Method in brief: as §1

[20] = molecular target: Gal(b1-3)[Neu5Ac(b2-6)]GalNAc
Method in brief: as §1

[21] = molecular target: Gal(b1-4)Gal
Method in brief: as §1

[22] = molecular target: Gal(b1-4)GalNAc(a1-3)[Fuc(a1-2)]Gal(b1-4)GlcNAc
Method in brief: as §1

[23] = molecular target: Gal(b1-4)GalNAc(b1-3)[Fuc(a1-2)]Gal(b1-4)GlcNAc
Method in brief: as §1

[24] = molecular target: Gal(b1-4)Glc
Method in brief: as §1

[25] = molecular target: Gal(b1-4)Glc6S
Method in brief: as §1

[26] = molecular target: Gal(b1-4)GlcNAc
Method in brief: as §1

[27] = molecular target: Gal(b1-4)GlcNAc(a1-6)Gal(b1-4)GlcNAc
Method in brief: as §1

[28] = molecular target: Gal(b1-4)GlcNAc(b1-2)Man
Method in brief: as §1

[29] = molecular target: Gal(b1-4)GlcNAc(b1-2)Man(a1-3)Man(b1-4)GlcNAc(b1-4)GlcNAc
Method in brief: as §1

[30] = molecular target: Gal(b1-4)GlcNAc(b1-2)Man(a1-3)[Gal(b1-4)GlcNAc(b1-2)Man(a1-6)]Man(b1-4)GlcNAc(b1-4)GlcNAc
Method in brief: as §1

[31] = molecular target: Gal(b1-4)GlcNAc(b1-2)Man(a1-3)[Gal(b1-4)GlcNAc(b1-2)Man(a1-6)]Man(b1-4)GlcNAc(b1-4)[Fuc(a1-6)]GlcNAc
Method in brief: as §1

[32] = molecular target: Gal(b1-4)GlcNAc(b1-2)Man(a1-3)[Gal(b1-4)GlcNAc(b1-2)Man(a1-6)][Gal(b1-4)GlcNAc(b1-4)]Man(b1-4)GlcNAc(b1-4)[Fuc(a1-6)]GlcNAc
Method in brief: as §1

[33] = molecular target: Gal(b1-4)GlcNAc(b1-2)Man(a1-3)[Gal(b1-4)GlcNAc(b1-2)Man(a1-6)][GlcNAc(b1-4)]Man(b1-4)GlcNAc(b1-4)[Fuc(a1-6)]GlcNAc
Method in brief: as §1

[34] = molecular target: Gal(b1-4)GlcNAc(b1-2)Man(a1-3)[GlcNAc(b1-2)Man(a1-6)]Man(b1-4)GlcNAc(b1-4)GlcNAc
Method in brief: as §1

[35] = molecular target: Gal(b1-4)GlcNAc(b1-2)Man(a1-3)[GlcNAc(b1-4)][Gal(b1-4)GlcNAc(b1-2)Man(a1-6)]Man(b1-4)GlcNAc(b1-4)GlcNAc
Method in brief: as §1

[36] = molecular target: Gal(b1-4)GlcNAc(b1-2)Man(a1-3)[Man(a1-6)]Man(b1-4)GlcNAc(b1-4)GlcNAc
Method in brief: as §1

[37] = molecular target: Gal(b1-4)GlcNAc(b1-2)Man(a1-6)Man(b1-4)GlcNAc(b1-4)GlcNAc
Method in brief: as §1

[38] = molecular target: Gal(b1-4)GlcNAc(b1-2)Man(a1-6)[GlcNAc(b1-2)Man(a1-3)]Man(b1-4)GlcNAc(b1-4)GlcNAc
Method in brief: as §1

B1: FliC (Pseudomonas aeruginosa), P72151 (protein)
chain: MALTVNTNIASLNTQRNLNASSNDLNTSLQRLTTGYRINSAKDDAAGLQISNRLSNQISGLNVATRNANDGISLAQTAEGALQQSTNILQRIRDLALQSANGSNSDADRAALQKEVAAQQAELTRISDTTTFGGRKLLDGSFGTTSFQVGSNAYETIDISLQNASASAIGSYQVGSNGAGTVASVAGTATASGIASGTVNLVGGGQVKNIAIAAGDSAKAIAEKMDGAIPNLSARARTVFTADVSGVTGGSLNFDVTVGSNTVSLAGVTSTQDLADQLNSNSSKLGITASINDKGVLTITSATGENVKFGAQTGTATAGQVAVKVQGSDGKFEAAAKNVVAAGTAATTTIVTGYVQLNSPTAYSVSGTGTQASQVFGNASAAQKSSVASVDISTADGAQNAIAVVDNALAAIDAQRADLGAVQNRFKNTIDNLTNISENATNARSRIKDTDFAAETAALSKNQVLQQAGTAILAQANQLPQAVLSLLR
- glycan array binding signal (z-score) [1]: 0.103
- glycan array binding signal (z-score) [2]: 2.32
- glycan array binding signal (z-score) [3]: -0.165
- glycan array binding signal (z-score) [4]: -0.094
- glycan array binding signal (z-score) [5]: -0.138
- glycan array binding signal (z-score) [6]: -0.214
- glycan array binding signal (z-score) [7]: -0.139
- glycan array binding signal (z-score) [8]: 0.427
- glycan array binding signal (z-score) [9]: -0.134
- glycan array binding signal (z-score) [10]: -0.157
- glycan array binding signal (z-score) [11]: -0.087
- glycan array binding signal (z-score) [12]: -0.235
- glycan array binding signal (z-score) [13]: -0.135
- glycan array binding signal (z-score) [14]: -0.193
- glycan array binding signal (z-score) [15]: -0.208
- glycan array binding signal (z-score) [16]: -0.106
- glycan array binding signal (z-score) [17]: 0.274
- glycan array binding signal (z-score) [18]: 0.527
- glycan array binding signal (z-score) [19]: 0.874
- glycan array binding signal (z-score) [20]: -0.299
- glycan array binding signal (z-score) [21]: -0.191
- glycan array binding signal (z-score) [22]: -0.198
- glycan array binding signal (z-score) [23]: -0.165
- glycan array binding signal (z-score) [24]: -0.2
- glycan array binding signal (z-score) [25]: -0.138
- glycan array binding signal (z-score) [26]: -0.16
- glycan array binding signal (z-score) [27]: -0.224
- glycan array binding signal (z-score) [28]: -0.177
- glycan array binding signal (z-score) [29]: -0.186
- glycan array binding signal (z-score) [30]: -0.104
- glycan array binding signal (z-score) [31]: -0.117
- glycan array binding signal (z-score) [32]: -0.227
- glycan array binding signal (z-score) [33]: -0.194
- glycan array binding signal (z-score) [34]: -0.133
- glycan array binding signal (z-score) [35]: -0.157
- glycan array binding signal (z-score) [36]: -0.116
- glycan array binding signal (z-score) [37]: -0.184
- glycan array binding signal (z-score) [38]: -0.235
